For this assay, the target named is human CTLA4-Fc (R&D Systems, #7268-CT) (human) (UniProt P16410). Briefly: ELISA: plate coated with human CTLA4-Fc (R&D Systems), detection anti-huKappa-HRP, chemiluminescence; masked antibody 1 after overnight incubation with Matriptase (Example 5). A general note: In an ELISA, binding on a coated surface is turned into a signal by an enzyme label.
Sequence of UniProt P16410 (P16410 36-162 limits assumed): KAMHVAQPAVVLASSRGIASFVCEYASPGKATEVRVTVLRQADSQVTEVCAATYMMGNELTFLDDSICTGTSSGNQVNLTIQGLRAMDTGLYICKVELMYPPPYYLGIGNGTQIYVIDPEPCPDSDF

B1: humanized masked anti-CTLA4 antibody 1 after protease activation (Matriptase) (antibody, part only; not given: cleaved mask remnants unclear, not shown: another chain or arm of the molecule; small tags and cut ends)
light: DIVMTQTPLSLSVTPGQPASISCRSSQSLLNSDGNTYLYWYLQKPGQSPQLLIYLVSKLGSGVPNRFSGSGSGTDFTLKISRVEAEDVGVYYCVQGTHDPWTFGGGTKVEIKRTVAAPSVFIFPPSDEQLKSGTASVVCLLNNFYPREAKVQWKVDNALQSGNSQESVTEQDSKDSTYSLSSTLTLSKADYEKHKVYACEVTHQGLSSPVTKSFNRGEC
heavy: QVQLQESGPGLVKPSETLSLTCSVTYHTITSGYDWTWIRKPPGKGMEWIGYISYSGNTNYNPSLKSRVTISRDTSKNQFFLKLSSVTAADTAVYYCASMMVPHYYVMDAWGQGTLVTVSS[human IgG1 constant region left out here]
B1 came in with a concentration giving a half-maximal response (EC50 (read off the curve)) of 1 nM.

By EC50 (read off the curve) is commonly meant the concentration at which the effect is half-maximal.

(Values after patent US20220073613A1, “ACTIVATABLE MASKED ANTI-CTLA4 BINDING PROTEINS” (Xilio Development, Inc., priority 2018, published 2022).)
